{"source": "paper PMC6637153", "binders": {"B1": {"name": "GFP-tagged GGA1 (protein, UniProt Q9UJY5 1-639)", "chain": "MEPAMEPETLEARINRATNPLNKELDWASINGFCEQLNEDFEGPPLATRLLAHKIQSPQEWEAIQALTVLETCMKSCGKRFHDEVGKFRFLNELIKVVSPKYLGSRTSEKVKNKILELLYSWTVGLPEEVKIAEAYQMLKKQGIVKSDPKLPDDTTFPLPPPRPKNVIFEDEEKSKMLARLLKSSHPEDLRAANKLIKEMVQEDQKRMEKISKRVNAIEEVNNNVKLLTEMVMSHSQGGAAAGSSEDLMKELYQRCERMRPTLFRLASDTEDNDEALAEILQANDNLTQVINLYKQLVRGEEVNGDATAGSIPGSTSALLDLSGLDLPPAGTTYPAMPTRPGEQASPEQPSASVSLLDDELMSLGLSDPTPPSGPSLDGTGWNSFQSSDATEPPAPALAQAPSMESRPPAQTSLPASSGLDDLDLLGKTLLQQSLPPESQQVRWEKQQPTPRLTLRDLQNKSSSCSSPSSSATSLLHTVSPEPPRPPQQPVPTELSLASITVPLESIKPSNILPVTVYDQHGFRILFHFARDPLPGRSDVLVVVVSMLSTAPQPIRNIVFQSAVPKVMKVKLQPPSGTELPAFNPIVHPSAITQVLLLANPQKEKVRLRYKLTFTMGDQTYNEMGDVDQFPPPETWGSL"}, "B2": {"name": "GFP-tagged GGA1t (protein, UniProt Q9UJY5)", "chain": "MEPAMEPETLEARINRATNPLNKELDWASINGFCEQLNEDFEGPPLATRLLAHKIQSPQEWEAIQALTVLETCMKSCGKRFHDEVGKFRFLNELIKVVSPKYLGSRTSEKVKNKILELLYSWTVGLPEEVKIAEAYQMLKKQGIVKSDPKLPDDTTFPLPPPRPKNVIFEDEEKSKMLARLLKSSHPEDLRAANKLIKEMVQEDQKRMEKISKRVNAIEEVNNNVKLLTEMVMSHSQGGAAAGSSEDLMKELYQRCERMRPTLFRLASDTEDNDEALGLSDPTPPSGPSLDGTGWNSFQSSDATEPPAPALAQAPSMESRPPAQTSLPASSGLDDLDLLGKTLLQQSLPPESQQVRWEKQQPTPRLTLRDLQNKSSSCSSPSSSATSLLHTVSPEPPRPPQQPVPTELSLASITVPLESIKPSNILPVTVYDQHGFRILFHFARDPLPGRSDVLVVVVSMLSTAPQPIRNIVFQSAVPKVMKVKLQPPSGTELPAFNPIVHPSAITQVLLLANPQKEKVRLRYKLTFTMGDQTYNEMGDVDQFPPPETWGSL"}, "B3": {"name": "venus-GGA1 (protein, UniProt Q9UJY5 1-639)", "chain": "MEPAMEPETLEARINRATNPLNKELDWASINGFCEQLNEDFEGPPLATRLLAHKIQSPQEWEAIQALTVLETCMKSCGKRFHDEVGKFRFLNELIKVVSPKYLGSRTSEKVKNKILELLYSWTVGLPEEVKIAEAYQMLKKQGIVKSDPKLPDDTTFPLPPPRPKNVIFEDEEKSKMLARLLKSSHPEDLRAANKLIKEMVQEDQKRMEKISKRVNAIEEVNNNVKLLTEMVMSHSQGGAAAGSSEDLMKELYQRCERMRPTLFRLASDTEDNDEALAEILQANDNLTQVINLYKQLVRGEEVNGDATAGSIPGSTSALLDLSGLDLPPAGTTYPAMPTRPGEQASPEQPSASVSLLDDELMSLGLSDPTPPSGPSLDGTGWNSFQSSDATEPPAPALAQAPSMESRPPAQTSLPASSGLDDLDLLGKTLLQQSLPPESQQVRWEKQQPTPRLTLRDLQNKSSSCSSPSSSATSLLHTVSPEPPRPPQQPVPTELSLASITVPLESIKPSNILPVTVYDQHGFRILFHFARDPLPGRSDVLVVVVSMLSTAPQPIRNIVFQSAVPKVMKVKLQPPSGTELPAFNPIVHPSAITQVLLLANPQKEKVRLRYKLTFTMGDQTYNEMGDVDQFPPPETWGSL"}, "B4": {"name": "venus-GGA1t (protein, UniProt Q9UJY5)", "chain": "MEPAMEPETLEARINRATNPLNKELDWASINGFCEQLNEDFEGPPLATRLLAHKIQSPQEWEAIQALTVLETCMKSCGKRFHDEVGKFRFLNELIKVVSPKYLGSRTSEKVKNKILELLYSWTVGLPEEVKIAEAYQMLKKQGIVKSDPKLPDDTTFPLPPPRPKNVIFEDEEKSKMLARLLKSSHPEDLRAANKLIKEMVQEDQKRMEKISKRVNAIEEVNNNVKLLTEMVMSHSQGGAAAGSSEDLMKELYQRCERMRPTLFRLASDTEDNDEALGLSDPTPPSGPSLDGTGWNSFQSSDATEPPAPALAQAPSMESRPPAQTSLPASSGLDDLDLLGKTLLQQSLPPESQQVRWEKQQPTPRLTLRDLQNKSSSCSSPSSSATSLLHTVSPEPPRPPQQPVPTELSLASITVPLESIKPSNILPVTVYDQHGFRILFHFARDPLPGRSDVLVVVVSMLSTAPQPIRNIVFQSAVPKVMKVKLQPPSGTELPAFNPIVHPSAITQVLLLANPQKEKVRLRYKLTFTMGDQTYNEMGDVDQFPPPETWGSL"}, "B5": {"name": "GFP-tagged GGA1 hinge domain (303-513 residues) (domain or fragment, UniProt Q9UJY5 303-513)", "chain": "VNGDATAGSIPGSTSALLDLSGLDLPPAGTTYPAMPTRPGEQASPEQPSASVSLLDDELMSLGLSDPTPPSGPSLDGTGWNSFQSSDATEPPAPALAQAPSMESRPPAQTSLPASSGLDDLDLLGKTLLQQSLPPESQQVRWEKQQPTPRLTLRDLQNKSSSCSSPSSSATSLLHTVSPEPPRPPQQPVPTELSLASITVPLESIKPSNIL"}, "B6": {"name": "myc-tagged GGA1 (protein, UniProt Q9UJY5 1-639)", "chain": "MEPAMEPETLEARINRATNPLNKELDWASINGFCEQLNEDFEGPPLATRLLAHKIQSPQEWEAIQALTVLETCMKSCGKRFHDEVGKFRFLNELIKVVSPKYLGSRTSEKVKNKILELLYSWTVGLPEEVKIAEAYQMLKKQGIVKSDPKLPDDTTFPLPPPRPKNVIFEDEEKSKMLARLLKSSHPEDLRAANKLIKEMVQEDQKRMEKISKRVNAIEEVNNNVKLLTEMVMSHSQGGAAAGSSEDLMKELYQRCERMRPTLFRLASDTEDNDEALAEILQANDNLTQVINLYKQLVRGEEVNGDATAGSIPGSTSALLDLSGLDLPPAGTTYPAMPTRPGEQASPEQPSASVSLLDDELMSLGLSDPTPPSGPSLDGTGWNSFQSSDATEPPAPALAQAPSMESRPPAQTSLPASSGLDDLDLLGKTLLQQSLPPESQQVRWEKQQPTPRLTLRDLQNKSSSCSSPSSSATSLLHTVSPEPPRPPQQPVPTELSLASITVPLESIKPSNILPVTVYDQHGFRILFHFARDPLPGRSDVLVVVVSMLSTAPQPIRNIVFQSAVPKVMKVKLQPPSGTELPAFNPIVHPSAITQVLLLANPQKEKVRLRYKLTFTMGDQTYNEMGDVDQFPPPETWGSL"}, "B7": {"name": "myc-tagged GGA1t (protein, UniProt Q9UJY5)", "chain": "MEPAMEPETLEARINRATNPLNKELDWASINGFCEQLNEDFEGPPLATRLLAHKIQSPQEWEAIQALTVLETCMKSCGKRFHDEVGKFRFLNELIKVVSPKYLGSRTSEKVKNKILELLYSWTVGLPEEVKIAEAYQMLKKQGIVKSDPKLPDDTTFPLPPPRPKNVIFEDEEKSKMLARLLKSSHPEDLRAANKLIKEMVQEDQKRMEKISKRVNAIEEVNNNVKLLTEMVMSHSQGGAAAGSSEDLMKELYQRCERMRPTLFRLASDTEDNDEALGLSDPTPPSGPSLDGTGWNSFQSSDATEPPAPALAQAPSMESRPPAQTSLPASSGLDDLDLLGKTLLQQSLPPESQQVRWEKQQPTPRLTLRDLQNKSSSCSSPSSSATSLLHTVSPEPPRPPQQPVPTELSLASITVPLESIKPSNILPVTVYDQHGFRILFHFARDPLPGRSDVLVVVVSMLSTAPQPIRNIVFQSAVPKVMKVKLQPPSGTELPAFNPIVHPSAITQVLLLANPQKEKVRLRYKLTFTMGDQTYNEMGDVDQFPPPETWGSL"}}, "key": {"myc-tagged GGA1": {"biological_target": "T1, myc-tagged GGA1 (UniProt Q9UJY5)", "T1 sequence": "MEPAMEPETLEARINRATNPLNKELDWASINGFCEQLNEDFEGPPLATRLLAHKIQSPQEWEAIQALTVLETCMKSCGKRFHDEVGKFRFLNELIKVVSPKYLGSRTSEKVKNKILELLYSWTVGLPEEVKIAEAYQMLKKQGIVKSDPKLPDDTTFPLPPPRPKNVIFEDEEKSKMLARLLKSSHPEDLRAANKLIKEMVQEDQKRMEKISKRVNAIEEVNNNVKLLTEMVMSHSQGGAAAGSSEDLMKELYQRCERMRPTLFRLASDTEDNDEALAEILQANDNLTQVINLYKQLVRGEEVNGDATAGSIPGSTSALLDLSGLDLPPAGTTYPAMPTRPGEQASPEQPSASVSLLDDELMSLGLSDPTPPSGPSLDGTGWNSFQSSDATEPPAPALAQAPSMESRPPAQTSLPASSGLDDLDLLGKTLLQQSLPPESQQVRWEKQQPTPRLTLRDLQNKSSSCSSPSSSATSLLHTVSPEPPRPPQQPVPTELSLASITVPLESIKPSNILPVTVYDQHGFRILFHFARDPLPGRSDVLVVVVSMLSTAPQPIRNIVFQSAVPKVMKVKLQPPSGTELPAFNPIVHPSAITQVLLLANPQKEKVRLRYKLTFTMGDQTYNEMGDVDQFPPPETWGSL", "assay": "co-IP; HEK293 cells co-transfected with Myc-GGA1 and pEGFP-C1, GFP-GGA1 or GFP-GGA1t for 48 h; lysis buffer 50 mM Tris-HCl pH 7.4, 140 mM NaCl, 1% Nonidet P-40; IP with anti-Myc antibodies and Dynabeads protein G at 4 °C; blot with anti-GFP"}, "Rluc8-GGA1": {"biological_target": "T2, Rluc8-GGA1 (UniProt Q9UJY5)", "T2 sequence": "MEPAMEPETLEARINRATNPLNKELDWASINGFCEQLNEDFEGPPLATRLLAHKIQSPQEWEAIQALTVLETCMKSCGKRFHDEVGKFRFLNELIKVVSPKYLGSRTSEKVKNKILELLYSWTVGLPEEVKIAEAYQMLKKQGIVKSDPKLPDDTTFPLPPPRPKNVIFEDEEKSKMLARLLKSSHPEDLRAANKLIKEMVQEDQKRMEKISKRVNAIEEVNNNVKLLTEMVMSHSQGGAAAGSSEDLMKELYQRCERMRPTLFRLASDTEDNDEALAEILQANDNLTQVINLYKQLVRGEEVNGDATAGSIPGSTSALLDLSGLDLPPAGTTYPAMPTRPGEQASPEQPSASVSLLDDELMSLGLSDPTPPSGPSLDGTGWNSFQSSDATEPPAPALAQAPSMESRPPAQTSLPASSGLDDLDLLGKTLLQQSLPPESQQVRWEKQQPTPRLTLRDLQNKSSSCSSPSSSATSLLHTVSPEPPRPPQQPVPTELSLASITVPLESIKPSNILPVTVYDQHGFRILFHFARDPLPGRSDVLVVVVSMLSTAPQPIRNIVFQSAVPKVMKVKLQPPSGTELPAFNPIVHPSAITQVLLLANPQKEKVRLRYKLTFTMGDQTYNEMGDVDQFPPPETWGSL", "assay": "FRET or BRET; live HEK293 cells transfected with 0.1 μg GGA-Rluc8 and 1.5 μg GGA-Venus for 24 h; coelenterazine h; net BRET"}, "[1]": {"biological_target": "T3, Rluc8-GGA1t (human (cDNA cloned from HEK293 cells)) (UniProt Q9UJY5)", "T3 sequence": "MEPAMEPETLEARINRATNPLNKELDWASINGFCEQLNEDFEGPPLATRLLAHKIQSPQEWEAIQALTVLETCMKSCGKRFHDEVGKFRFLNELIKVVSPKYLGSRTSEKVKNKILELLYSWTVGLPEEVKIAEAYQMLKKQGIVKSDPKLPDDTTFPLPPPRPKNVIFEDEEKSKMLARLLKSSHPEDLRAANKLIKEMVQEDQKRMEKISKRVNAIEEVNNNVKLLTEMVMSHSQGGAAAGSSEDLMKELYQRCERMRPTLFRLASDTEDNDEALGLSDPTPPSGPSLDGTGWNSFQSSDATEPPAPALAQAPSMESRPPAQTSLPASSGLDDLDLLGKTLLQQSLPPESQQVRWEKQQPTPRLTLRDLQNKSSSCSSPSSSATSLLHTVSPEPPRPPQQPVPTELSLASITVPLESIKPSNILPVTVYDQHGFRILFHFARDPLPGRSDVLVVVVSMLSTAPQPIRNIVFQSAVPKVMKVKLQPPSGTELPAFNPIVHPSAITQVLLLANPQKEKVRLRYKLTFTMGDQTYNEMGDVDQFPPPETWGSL", "assay": "FRET or BRET; live HEK293 cells transfected with 0.1 μg GGA-Rluc8 and 1.5 μg GGA-Venus for 24 h; coelenterazine h; net BRET"}, "[2]": {"biological_target": "T4, GST fusion protein of the third intracellular loop (ICL3, 205-369 residues) of α2B-adrenergic receptor (UniProt P19328)", "T4 sequence": "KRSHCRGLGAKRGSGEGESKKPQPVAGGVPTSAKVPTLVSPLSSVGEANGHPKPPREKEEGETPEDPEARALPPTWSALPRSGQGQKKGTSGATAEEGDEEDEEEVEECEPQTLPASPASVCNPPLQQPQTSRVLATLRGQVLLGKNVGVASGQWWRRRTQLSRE", "assay": "pull-down; GST fusion proteins tethered to glutathione resin incubated with total cell lysates of transfected HEK293 cells; 20 mM Tris-HCl pH 7.5, 1% NP-40, 140 mM NaCl, 1 mM MgCl2, 4 °C, 4-6 h; blot with anti-GFP or anti-myc; only the target purified"}}, "note": "No constants are given. Whether binding was seen depends on the method and setting. Binding seen in cells or lysates may run through a third protein. Some binding calls cover weakened binding; strength is not graded here. Tags and fused reporters may be left off the sequences shown."}
{"binder": "B1", "values": [{"measurement": "binding", "setting": "myc-tagged GGA1", "value": "binds"}]}
{"binder": "B2", "values": [{"measurement": "binding", "setting": "myc-tagged GGA1", "value": "binds"}]}
{"binder": "B3", "values": [{"measurement": "binding", "setting": "Rluc8-GGA1", "value": "binds"}, {"measurement": "binding", "setting": "[1]", "value": "binds"}]}
{"binder": "B4", "values": [{"measurement": "binding", "setting": "Rluc8-GGA1", "value": "binds"}, {"measurement": "binding", "setting": "[1]", "value": "binds"}]}
{"binder": "B5", "values": [{"measurement": "binding", "setting": "[2]", "value": "binds"}]}
{"binder": "B6", "values": [{"measurement": "binding", "setting": "[2]", "value": "binds"}]}
{"binder": "B7", "values": [{"measurement": "binding", "setting": "[2]", "value": "no binding"}]}
